Experimental data as given in PubChem BioAssay AID1460 (National Center for Advancing Translational Sciences (NCATS), 2008).
Screen size: about 270,000 compounds; about 5,800 (2.1%) were called active. Inconclusive results, whose numbers are uncertain, are shown with a selection of clear calls. The call rests on the fitted dose curve; in most records, active means well fitted inhibition curve with a large enough effect; inconclusive means small, poorly fitted or top-dose-only effect; inactive means flat fitted curve, though single readings scatter. A potency beside an inconclusive call is a rough fit, not a confirmed value.

Target: Microtubule-associated protein tau (Homo sapiens) (UniProt P10636)
Assay: qHTS for Inhibitors of Tau Fibril Formation, Thioflavin T Binding; further: nearly all actives have a fitted effect of over 55% in size
Conditions: recombinant tau K18 P301L (four-repeat tau fragment), heparin-induced fibrillization, ThT fluorescence; series mostly up to 57.4 µM; activity, negative = inhibition: at the top concentration
In short: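 Tau K18 P301L fragment (15 uM unlabeled plus 0.24 uM Alexa 594-labeled) in 100 mM sodium acetate pH 7 with compound, fibrillization induced by 20 uM heparin for 6 hr at 37 C. Thioflavin T (30 uM) added, fluorescence read after 1 hr (ex 450, em 510 nm).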
On the % scale 0 is the no-effect control and ±100 the full control effect; potency means the concentration at half of the fitted maximal effect; tags describe the fitted curve by direction and shape.

UniProt P10636, sequence (P10636 whole entry, looked up): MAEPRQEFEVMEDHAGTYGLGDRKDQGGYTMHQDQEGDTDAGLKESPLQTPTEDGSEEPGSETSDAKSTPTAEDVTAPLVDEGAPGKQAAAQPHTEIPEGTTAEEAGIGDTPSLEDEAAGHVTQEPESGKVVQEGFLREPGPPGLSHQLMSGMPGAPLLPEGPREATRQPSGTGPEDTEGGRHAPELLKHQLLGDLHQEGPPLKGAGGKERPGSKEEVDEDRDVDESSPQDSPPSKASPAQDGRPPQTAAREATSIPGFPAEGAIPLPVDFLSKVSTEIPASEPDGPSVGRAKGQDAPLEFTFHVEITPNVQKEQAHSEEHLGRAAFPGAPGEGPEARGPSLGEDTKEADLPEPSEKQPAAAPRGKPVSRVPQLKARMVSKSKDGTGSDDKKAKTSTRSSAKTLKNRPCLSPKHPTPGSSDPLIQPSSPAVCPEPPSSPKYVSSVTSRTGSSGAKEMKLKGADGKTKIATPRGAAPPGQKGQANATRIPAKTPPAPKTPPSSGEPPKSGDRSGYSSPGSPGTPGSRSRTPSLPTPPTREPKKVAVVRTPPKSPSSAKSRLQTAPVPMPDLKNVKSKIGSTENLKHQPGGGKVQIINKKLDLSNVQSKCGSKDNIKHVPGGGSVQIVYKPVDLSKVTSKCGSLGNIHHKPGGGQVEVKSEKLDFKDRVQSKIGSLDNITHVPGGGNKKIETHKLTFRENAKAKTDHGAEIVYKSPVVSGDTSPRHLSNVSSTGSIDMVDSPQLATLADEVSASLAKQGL

Compound | activity, negative = inhibition | Potency
CCCCCCNS(=O)(=O)c1ccc(NC(=O)C2CCCO2)cc1 (stereo not given) | inactive: -3.3% | –
CCOC(=O)/C(C#N)=C(C)/C=C1\Sc2ccccc2N1CC | – | inconclusive: 1.78 µM [inhibitor, full curve]
Cc1cc(C)n2cc(CSc3ccc(Br)cc3)nc2n1 | – | inconclusive: 22.4 µM [inhibitor, single point]
CCN(C(=O)Cc1cccs1)c1nnc(-c2cccnc2)s1 | inactive: -8.07% | –
COc1ccc2cnn(-c3ccc(C)cc3)c(=O)c2c1OC | inactive: 6.13% | –
COC/C=C/C1=CC2=CC(=O)C(C)(OC(=O)c3cnc4ccccc4n3)C(=O)C2=CN1Cc1ccccc1 (stereo not given) | – | active: 10 µM
C[C@H](NC(=O)c1[nH]cnc1C(=O)Nc1ccc(CNC(=O)OC(C)(C)C)cc1)C(=O)OC(C)(C)C | inactive: 15.8% | –
Cc1cc(C)c(NC(=O)CN2C(=O)c3cccnc3Oc3ccc(Cl)cc32)c(C)c1 | – | inconclusive: 28.2 µM [inhibitor, single point]
Cc1ccc(N(CC(=O)N2CCn3c2nc2ccccc23)S(=O)(=O)c2c(C)n[nH]c2C)cc1 | – | inconclusive: 0.199 µM [inhibitor, full curve, poor fit]
CCCCSc1nnc(-c2cc3c(C(F)(F)F)nn(C)c3s2)n1C | – | inconclusive: 8.91 µM [inhibitor, partial curve, poor fit]
O=[N+]([O-])c1cc(C(F)(F)F)ccc1N/N=C/c1cc2ccccc2nc1Cl | – | inconclusive: 4.47 µM [inhibitor, partial curve]
CCc1ccccc1NC(=O)CSc1ncc2c(n1)-c1ccccc1N(C)S2(=O)=O | inactive: -14% | –
CCOC(=O)c1c(C)c(-c2ccccc2)n(CC(=O)N2CCCC2)c1C | – | inconclusive: 7.08 µM [inhibitor, partial curve]
CC1(C)CC(CC(=O)O)C(=O)O1 (stereo not given) | inactive: -2.28% | –
Cc1ccc(NC(=O)CSc2ncccc2C(=O)Oc2cccc([N+](=O)[O-])c2)cc1Cl | inactive: -11% | –
O=C(CCCCCCN1C(=O)c2ccccc2C1=O)N1CCC(c2ccccc2)C1 (stereo not given) | – | inconclusive: 22.4 µM [inhibitor, partial curve]
COc1cccc(NC(=O)Cn2c(=O)n(Cc3nc(-c4ccccc4)no3)c(=O)c3ccccc32)c1 | inactive: 18.3% | –
CCOc1ccc(-c2cc(C)n3nc(C(=O)Nc4cc(Cl)ccc4O)cc3n2)cc1 | – | inconclusive: 0.0891 µM [inhibitor, full curve, poor fit]
COc1ccc(OC)c(CNC(=O)c2cc(=O)[nH]c3ccc(S(=O)(=O)N4CCCCC4C)cc23)c1 (stereo not given) | inactive: -1.58% | –
CO[C@@]1(NC(=O)Cc2cccs2)C(=O)N2C(C(=O)O)=C(COC(N)=O)CSC21 (stereo not given in full) | – | inconclusive: 20 µM [inhibitor, partial curve]
Cc1ccc(Cl)c(OC(=O)Cn2cnc3c2c(=O)n(C)c(=O)n3C)c1 | – | inconclusive: 11.2 µM [inhibitor, partial curve]
Cc1ccc(NC(=S)/C(=C(\[O-])c2ccc(F)cc2)[n+]2ccccc2)cc1 | – | inconclusive: 15.8 µM [inhibitor, partial curve]
O=C(CSc1nnc(-c2cccnc2)o1)OC1CCCCC1 | inactive: -4.25% | –

Compound | activity, negative = inhibition | Potency
Cc1csc2nc(-c3cccc(NC(=O)c4ccc(S(N)(=O)=O)cc4)c3)cn12 | inactive: 2.04% | –
COc1ccc(-c2nc3cc(NC(=O)COc4ccc(F)cc4)ccc3o2)cc1 | – | inconclusive: 0.501 µM [inhibitor, full curve, poor fit]
COc1ccc(NC(=O)Cn2c(-c3ccc(OC)cc3)cn(-c3ccc(C)cc3)c2=O)cc1 | – | inconclusive: 14.1 µM [inhibitor, partial curve]
O=C(CC1(O)C(=O)N(Cc2ccccc2)c2ccccc21)c1ccncc1 (stereo not given) | – | inconclusive: 39.8 µM [inhibitor, single point]
CCOC(=O)c1ccc(NC(=O)CC2Nc3cc(C)c(C)cc3NC2=O)cc1 (stereo not given) | – | inconclusive: 15.8 µM [inhibitor, partial curve]
Cc1ccc(S(=O)(=O)CCC(=O)NCCN2C(=O)S/C(=C\c3ccccc3)C2=O)cc1 | – | inconclusive: 17.8 µM [inhibitor, single point]
CC(/C=N/NC(=O)CSc1nc2ccccc2n1C)=C\c1ccco1 | – | inconclusive: 31.6 µM [inhibitor, single point]
CCOc1ccc2nc(SCC#N)c(C#N)cc2c1 | – | inconclusive: 2.82 µM [inhibitor, full curve]
c1ccc2oc(SCc3cn4ccsc4n3)nc2c1 | – | inconclusive: 35.5 µM [inhibitor, single point]
CC1(C)Cc2nc3sc4c(NCCO)ncnc4c3cc2CS1 | inactive: -4.49% | –
CCOC(=O)CNC(=O)CSc1nc2c(C)cccc2cc1CC | inactive: -7.72% | –
CC1=Nn2c(nnc2-c2n[nH]c3c2CCC3)SC1 | inactive: -3.13% | –
COc1cccc(/C=C/C2=CC3(C)CC2(C)C(c2cccc(OC)c2)CC3=O)c1 (stereo not given) | inactive: -0.579% [at 11.5 µM] | –
O=C(N/N=C/c1cccc2nccnc12)c1ccccc1O | – | inconclusive: 14.1 µM [inhibitor, partial curve]
COc1ccc(C(=O)/C=C(/C)N(C)C)cc1 | inactive: -13.2% | –
COc1ccc(NC(=O)c2nn(C)c3c2CSc2ccc(C)cc2-3)cc1OC | – | inconclusive: 2.82 µM [inhibitor, full curve]
Cc1cc2ccccc2n1CCNC(=O)Cc1cccc2ccccc12 | – | inconclusive: 25.1 µM [inhibitor, single point]
O=C(c1ccc(C#Cc2ccccc2)o1)N1CCN(c2ccccn2)CC1 | – | inconclusive: 7.08 µM [inhibitor, partial curve]
CCOC1=C/C(=C/c2c(N)n3nc(-c4ccccc4)sc3nc2=O)C=CC1=O | – | active: 8.91 µM
CCCn1c(O)c(CN2CCCC(C)C2)c(C)c(C#N)c1=O (stereo not given) | – | inconclusive: 25.1 µM [inhibitor, partial curve]
N#CC1(Nc2ccccc2)C(=O)Nc2ccccc21 (stereo not given) | – | inconclusive: 25.1 µM [inhibitor, partial curve]
Cc1nc(SCC(=O)OC(C)(C)C)c2c3c(sc2n1)CCCC3 | inactive: -12.4% | –
